{
  "source": "the RNAGym collection of RNA variant scans (doi:10.1093/nar/gkz1192)",
  "parents": {"B1": {"name": "CPEB3 Ribozyme (parent)", "chain": "UAACAGGGGGCCACAGCAGAAGCGUUCACGUCGCAGCCCCUGUCAGAUUCUGGUGAAUCUGCGAAUUCUGCUGUAUAUCUC"}},
  "note": "Read counts are not given, so values of variants with three or more changes are uncertain.",
  "data": [
    {"variants_of": "B1", "test": "self-cleavage, relative activity (ratio to wild type); higher = more cleavage; in vitro, sequencing", "procedure,_shortened": "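CPEB3 self-cleaving ribozyme mutant libraries were made by rounds of error-prone PCR, barcoded, and transcribed in vitro with T7 RNA polymerase for 5 hours at 37°C. Cleavage occurred during transcription and a 15 min DNase I step before EDTA stop. RNAs were reverse transcribed with template switching and Illumina-sequenced, with DNA sequencing mapping barcodes to variants. Relative activity is the variant's cleaved/total read fraction divided by wild type's (minimum 5 reads), averaged across three batches.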", "values": [
      {"variant": "UAACAGGGGGCCACAGCAGCAGCGUUCACGUCGCGGCCCCUGACAGAUUCUGGUGAAUCUGCGUAUUCUGCUGUAUAUCUC", "note": "[A20C A35G U43A A64U]", "self-cleavage": 0.27},
      {"variant": "UAACAGGGGGCCACAGCAGCAGCGUUCACGUCGCAGCCCCUGUCCGAUUCUGGUGAAUCUGAGGAUUCUGCUGUGUAUCUC", "note": "[A20C A45C C62A A64G A75G]", "self-cleavage": 0.04},
      {"variant": "UAACAGGGGGCCACAGCAGCAGCGUUCACGUCGCAGCCCCUGUCAGGCUCAGGUGAAUCUGCGAAUUCUGCUGUAUAUCUC", "note": "[A20C A47G U48C U51A]", "self-cleavage": 0.23},
      {"variant": "UAACAGGGGGCCACAGCAGCAGCGUUCACGUCGCAGCCCCUGUCAGGUUCUGGGGUGUCUGCGAAUUCUGCUGUAUAUCUC", "note": "[A20C A47G U54G A56U A57G]", "self-cleavage": 0.2},
      {"variant": "UAACAGGGGGCCACAGCAGCAGCGUUCACGUCGCAGCCCCUGUCAGAUUCUGGUGGAUCAGCGAAUUCUGCUGUAUAUCUC", "note": "[A20C A56G U60A]", "self-cleavage": 0.21},
      {"variant": "UAACAGGGGGCCACAGCAGCAGCGUUCACGUCGCAGCCCCUGUCAGAUUCUGGUGAAUCUGCGGAUCCUGCUGUGUAUCUC", "note": "[A20C A64G U67C A75G]", "self-cleavage": 0.05},
      {"variant": "UAACAGGGGGCCACAGCAGCAGCGUUCACGUCGCAGCCCCUGUCAGAUUCUGGUGAAUCUGCGUAUUCCGCUGCGUAUCUC", "note": "[A20C A64U U69C U74C A75G]", "self-cleavage": 0.06},
      {"variant": "UAACAGGGGGCCACAGCAGCAGCGUUCACGUCGCAGCCCCUGUCAGAUUCUGGUGAAUCUGCGUAUUCUGCUGAAUAUCUC", "note": "[A20C A64U U74A]", "self-cleavage": 0.14},
      {"variant": "UAACAGGGGGCCACAGCAGCAGCGUUCAUGCCGCAGCCCCUGUCAGACUCUGGUGAAUCUGCGAAUUCUGCUGUAUGUCUC", "note": "[A20C C29U U31C U48C A77G]", "self-cleavage": 0.19},
      {"variant": "UAACAGGGGGCCACAGCAGCAGCGUUCACGUCGCAGCCCUUGUCAGAUUCUGGAGAGUCAGCGGAUUCUGCUGUAUAUCUC", "note": "[A20C C40U U54A A57G U60A A64G]", "self-cleavage": 0.06},
      {"variant": "UAACAGGGGGCCACAGCAGCAGCGUUCACGUCACAGCCCCUGUCAGAUUCUGGUGAACUUGCGAGUUCUGCUGUAUAUCUC", "note": "[A20C G33A U58C C59U A65G]", "self-cleavage": 0.05},
      {"variant": "UAACAGGGGGCCACAGCAGCAGCGUUCACGUCACAGCCCCUGUCAGAUUCUGGUGAAUCUGCGAACCCAGCUGCAUAUCCC", "note": "[A20C G33A U66C U67C U69A U74C U80C]", "self-cleavage": 0.04},
      {"variant": "UAACAGGGGGCCACAGCAGCAGCGAUCACGUCGCAGCCCCUGUCAGAUUCUGGUGAAUCUGCGAAUUCCGCUGUAUAUCUC", "note": "[A20C U25A U69C]", "self-cleavage": 0.36},
      {"variant": "UAACAGGGGGCCACAGCAGCAGCGCUCACGUCGCGGCCCCUGUCAGAUUCUGGUGAAUCUGCGAAUCCUGCUGUAUAUCUC", "note": "[A20C U25C A35G U67C]", "self-cleavage": 0},
      {"variant": "UAACAGGGGGCCACAGCAGCAGCGCUCACGUCGCAGCCCCUGUCCGAUUCUGGUGAAUCUGCGAAUUCUGCUGUAUAUCUC", "note": "[A20C U25C A45C]", "self-cleavage": 0.08},
      {"variant": "UAACAGGGGGCCACAGCAGCAGCGCUCACGUCGCAGCUCCUGUCAGACUCUGGUGAAUCUGCGAAUUCUGCUGUAUAUCCC", "note": "[A20C U25C C38U U48C U80C]", "self-cleavage": 0.04},
      {"variant": "UAACAGGGGGCCACAGCAGCAGCGUCCACGUCGCGGCCCCUGUCAGAUUCUGGUGAAUCUGCGAAUUCUGCUGUAUAUCUC", "note": "[A20C U26C A35G]", "self-cleavage": 0.43},
      {"variant": "UAACAGGGGGCCACAGCAGCAGCGUCCACGUCGCUGCCCCUGCCAGAUUCUGGUGAAUCUGCGAAUUCUGCUGCAUGUCUC", "note": "[A20C U26C A35U U43C U74C A77G]", "self-cleavage": 0.08},
      {"variant": "UAACAGGGGGCCACAGCAGCAGCGUUCACGCCGCAGCCCCUGUCAGAUUCUGGCGAAUCUGCGGAUUCUGCUGUAUAUCUC", "note": "[A20C U31C U54C A64G]", "self-cleavage": 0.08},
      {"variant": "UAACAGGGGGCCACAGCAGCAGCGUUCACGUCGCAGCCCCAGUCAGGUUCAGGUGAAUCUGCGAAUUCUGCUGUAUAUCUC", "note": "[A20C U41A A47G U51A]", "self-cleavage": 0.18},
      {"variant": "UAACAGGGGGCCACAGCAGCAGCGUUCACGUCGCAGCCCCCGUCAGACUCUGGUGGAUCUGCGAAUUCUGCGGUAUAUCUC", "note": "[A20C U41C U48C A56G U72G]", "self-cleavage": 0.11},
      {"variant": "UAACAGGGGGCCACAGCAGCAGCGUUCACGUCGCAGCCCCUGUCAGAUCCUGGAGAAUCUGCGAAUUCUGCUGCAUAUCUC", "note": "[A20C U49C U54A U74C]", "self-cleavage": 0.17},
      {"variant": "UAACAGGGGGCCACAGCAGGCGCGUUCACGUCGCAGCCCUUGUCAGAUUCUGGUGAAUCUGCGAAUUCUGCUCUAUAUCUC", "note": "[A20G A21C C40U G73C]", "self-cleavage": 0.07},
      {"variant": "UAACAGGGGGCCACAGCAGGGGCGUUCACGUCGCGGCCCCUGUCAGAUUCUGGUGAAUCUGCGAAUUCUGCUGUAUAUCUC", "note": "[A20G A21G A35G]", "self-cleavage": 0.67},
      {"variant": "UAACAGGGGGCCACAGCAGGGGCGUUCACGUCGCAGCCCCUGUCAGAUUCUGGUGUAUCUGCGAAUUCUGCUGUAUAUCUC", "note": "[A20G A21G A56U]", "self-cleavage": 0.1},
      {"variant": "UAACAGGGGGCCACAGCAGGGGCGUUCACGUCGCAGCCCCUGUCAGAUUCUGGUGACUCUGCGAAUUCUGCUGCAUAUCUC", "note": "[A20G A21G A57C U74C]", "self-cleavage": 0.47},
      {"variant": "UAACAGGGGGCCACAGCAGGGGCGUUCACGUCGCAGCCACUGUCAGAUUCUGGUGAAUCUGCGAAUUCUGCUGUAUAUCUC", "note": "[A20G A21G C39A]", "self-cleavage": 0.26},
      {"variant": "UAACAGGGGGCCACAGCAGGGGCGUUCACUUCGCAGCCCCCGUCAGAUUCUGGUGAAUCUGCGAAUUCUGCCGUAUAACUC", "note": "[A20G A21G G30U U41C U72C U78A]", "self-cleavage": 0.27},
      {"variant": "UAACAGGGGGCCACAGCAGGGGCGUUCACGUCGCAGCCCCUGUCACAUUCUGGUGAAUCCGCGAACUCUGCUGUAUAUCUC", "note": "[A20G A21G G46C U60C U66C]", "self-cleavage": 0.16},
      {"variant": "UAACAGGGGGCCACAGCAGGGGCGCUCACGUCGCAGCCCCUGUCAGAUUCUGGUGAAUCUGCGAAUUCUGCUGUAUAUCUC", "note": "[A20G A21G U25C]", "self-cleavage": 0.38},
      {"variant": "UAACAGGGGGCCACAGCAGGGGCGCUCACGUCGCAGCCCCUGUCAGAUUCUGGUGAUUCUGCGAAUCCUGCUGUAUAUCUC", "note": "[A20G A21G U25C A57U U67C]", "self-cleavage": 0.07},
      {"variant": "UAACAGGGGGCCACAGCAGGGGCGUUCACGUCGCAGCCCCAGUCAGAUUCCGGUGAAUCUGCGACUUCUGCUGUAUAUCUC", "note": "[A20G A21G U41A U51C A65C]", "self-cleavage": 0.14},
      {"variant": "UAACAGGGGGCCACAGCAGGGGCGUUCACGUCGCAGCCCCUGUCAGAUUCUGGUGAAUCUGCGAAUACUGCGGUAUAUCUC", "note": "[A20G A21G U67A U72G]", "self-cleavage": 0.07},
      {"variant": "UAACAGGGGGCCACAGCAGGGGCGUUCACGUCGCAGCCCCUGUCAGAUUCUGGUGAAUCUGCGAAUUCAGCUGUAUACCUC", "note": "[A20G A21G U69A U78C]", "self-cleavage": 0.54}
    ]}
  ]
}
